Experimental data taken from the supplement of paper PMC10441789.
The list shows a part of the results. Antibody binding of pooled human sera (four to six donors per pool; dilution not stated) to peptides of the Trypanosoma cruzi antigen TSSA on microarrays. Quantile-normalised fluorescence in arbitrary units, mean of duplicate arrays; higher = more binding. No active / inactive call. The uninfected pools are read here as the healthy donors of the same country. The strongest signals lie near the top of the scale (about 60,000).

Tests used:
Assay in all cases: antibody binding signal (normalised fluorescence) (arbitrary fluorescence units); higher = stronger serum antibody binding to peptide
[1] = test system: pooled sera of chronic Chagas disease patients, Argentina
Description: (§1)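 Microarray of 15-residue peptides over residues 30-55 of Trypanosoma cruzi TSSAII, each with 1 to 10 substitutions at naturally variable positions, probed with one serum pool per country.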

[2] = test system: pooled sera of chronic Chagas disease patients, Bolivia
Description: as §1

[3] = test system: pooled sera of chronic Chagas disease patients, Brazil
Description: as §1

[4] = test system: pooled sera of chronic Chagas disease patients, Colombia
Description: as §1

[5] = test system: pooled sera of chronic Chagas disease patients, Mexico
Description: as §1

[6] = test system: pooled sera of chronic Chagas disease patients, USA
Description: as §1

[7] = test system: pooled sera of uninfected people, Argentina
Description: as §1

[8] = test system: pooled sera of uninfected people, Bolivia
Description: as §1

[9] = test system: pooled sera of uninfected people, Brazil
Description: as §1

[10] = test system: pooled sera of uninfected people, Colombia
Description: as §1

[11] = test system: pooled sera of uninfected people, Mexico
Description: as §1

[12] = test system: pooled sera of uninfected people, USA
Description: as §1

Sequence | antibody binding signal [1] | antibody binding signal [2] | antibody binding signal [3] | antibody binding signal [4] | antibody binding signal [5] | antibody binding signal [6] | antibody binding signal [7] | antibody binding signal [8] | antibody binding signal [9] | antibody binding signal [10] | antibody binding signal [11] | antibody binding signal [12]
STPPSGTDNKAATGE | 29700 | 39800 | 46300 | 1100 | 7910 | 24400 | 914 | 557 | 759 | 180 | 163 | 237
KDNKPAAGETPSPPG | 466 | 184 | 17800 | 349 | 203 | 3200 | 377 | 440 | 221 | 315 | 423 | 990
GTEKKAAAGEAPSQS | 1720 | 6520 | 7230 | 470 | 698 | 10700 | 105 | 978 | 119 | 94.3 | 97.9 | 138
GTENKTATGGTPSPS | 28800 | 1490 | 1210 | 1500 | 1680 | 1300 | 271 | 481 | 329 | 621 | 456 | 166
GKEKKTAAGGAPSPS | 541 | 309 | 209 | 4220 | 845 | 861 | 133 | 98.3 | 108 | 179 | 143 | 129
KKPAAGGTPSPPGAS | 181 | 218 | 215 | 1570 | 136 | 402 | 265 | 136 | 628 | 150 | 79.6 | 417
TENKPATGGTPSQPG | 43800 | 1730 | 17900 | 809 | 1030 | 2250 | 452 | 792 | 522 | 317 | 640 | 237
GKEKKPATGEAPSPP | 40000 | 27100 | 41600 | 5760 | 7250 | 30700 | 816 | 305 | 156 | 151 | 107 | 314
SGTDKKPATGGAPSP | 3410 | 2210 | 23200 | 11700 | 2830 | 2880 | 425 | 1180 | 142 | 347 | 1960 | 304
TPPSGKEKKAATGGA | 10300 | 217 | 758 | 1670 | 6100 | 1340 | 327 | 423 | 99 | 276 | 80.6 | 244
TPPSGKDNKPAAGET | 5600 | 14900 | 29600 | 282 | 23900 | 14900 | 343 | 884 | 298 | 316 | 356 | 218
KTATGGAPSQSGASS | 495 | 225 | 620 | 266 | 785 | 207 | 484 | 186 | 141 | 110 | 348 | 249
GKDNKAAAGGTPSQP | 325 | 235 | 457 | 1020 | 559 | 1060 | 215 | 280 | 262 | 156 | 160 | 103
PSGTDKKTAAGGAPS | 1270 | 571 | 1970 | 9380 | 3320 | 1780 | 269 | 588 | 165 | 343 | 233 | 255
STPPSGTDNKPAAGE | 50400 | 45400 | 47000 | 7270 | 24300 | 43300 | 2230 | 654 | 295 | 350 | 639 | 349
TENKTAAGGTPSPSG | 28900 | 418 | 301 | 4070 | 438 | 1470 | 287 | 186 | 968 | 539 | 1440 | 211
EKKPATGEAPSPSGA | 44400 | 43000 | 46500 | 516 | 268 | 33700 | 827 | 618 | 350 | 270 | 286 | 612
EKKAAAGGTPSPSGA | 1260 | 185 | 255 | 6390 | 551 | 1880 | 204 | 843 | 1820 | 177 | 128 | 805
KDKKAAAGETPSPPG | 157 | 204 | 209 | 211 | 194 | 562 | 126 | 90.2 | 82.7 | 68.5 | 84.8 | 196
GKDNKTAAGGTPSPS | 677 | 203 | 185 | 3250 | 562 | 1380 | 133 | 109 | 196 | 192 | 164 | 125
GTDKKTATGETPSPS | 352 | 427 | 872 | 1260 | 387 | 7570 | 220 | 335 | 141 | 135 | 437 | 2000
GKEKKTAAGETPSQP | 1460 | 393 | 15500 | 1300 | 2380 | 2930 | 114 | 102 | 99.7 | 266 | 93.7 | 119
PPSGKENKTATGGAP | 5660 | 854 | 4690 | 1420 | 2750 | 3070 | 3220 | 1390 | 145 | 644 | 246 | 471
SGKDKKPATGETPSP | 29600 | 3650 | 20800 | 708 | 548 | 19800 | 148 | 196 | 125 | 692 | 584 | 276
TDKKTAAGGAPSQPG | 1270 | 458 | 2140 | 6340 | 496 | 467 | 169 | 119 | 238 | 184 | 260 | 127
